# US20220389066A1 (Affibody, published 2022)
# T1: interleukin-6 (IL-6) (UniProt P05231 29-212)
# T1 sequence (looked up): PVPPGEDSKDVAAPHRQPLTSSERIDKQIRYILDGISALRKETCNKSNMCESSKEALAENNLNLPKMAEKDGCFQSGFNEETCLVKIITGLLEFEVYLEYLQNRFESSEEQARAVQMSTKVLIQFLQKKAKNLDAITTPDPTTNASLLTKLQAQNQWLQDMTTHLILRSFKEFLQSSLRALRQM
# T2: interleukin-1β (IL-1β) (UniProt P01584 117-269)
# T2 sequence (looked up): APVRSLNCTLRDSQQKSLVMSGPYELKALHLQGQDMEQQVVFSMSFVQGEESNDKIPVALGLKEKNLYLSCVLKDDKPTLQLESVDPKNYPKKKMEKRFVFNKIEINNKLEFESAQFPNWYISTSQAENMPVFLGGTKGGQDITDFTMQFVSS
# T3: HMGB1(red), fully reduced form of full-length HMGB1 (HMGB1C23hC45hC106h) (rat, UniProt P63159 1-215, all cysteines reduced (C23h, C45h, C106h))
# T3 construct: Produced by HMGBiotech; also called HMGB1(reduced); b-HMGB1(red)
# T3 sequence: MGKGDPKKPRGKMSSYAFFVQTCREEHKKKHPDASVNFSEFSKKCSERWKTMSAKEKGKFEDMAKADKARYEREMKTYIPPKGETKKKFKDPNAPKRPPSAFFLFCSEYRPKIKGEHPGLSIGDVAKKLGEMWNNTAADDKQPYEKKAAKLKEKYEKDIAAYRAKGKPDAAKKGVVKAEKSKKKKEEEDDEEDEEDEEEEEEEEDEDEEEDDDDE
# T4: HMGB1(disulfide), disulfide linked form of full-length HMGB1 (HMGB1C23-C45C106h) (rat, UniProt P63159 1-215, disulfide C23-C45; C106 reduced)
# T4 construct: unlabelled in Biacore and Attana; also called b-HMGB1(disulfide)
# T4 sequence: T3 sequence
# B1: ZZA4263, Z(boxB)-L2-Z(boxA)-ABD (designed binder)
# chain: AEAKYAKEAWLAEQEIWQLPNLTEAQFQAFILKLIDDPSQSSELLSEAKKLNDSQAPKGAPGGGGSTSAEAKYAKEDWDAFWEIIWLPNLTDAQQRAFIYKLEDDPSQSSELLSEAKKLNDSQAPKASGSLAEAKEAANAELDSYGVSDFYKRLIDKAKTVEGVEALKDAILAALP
# notes: Heterodimer of ZH27 and ZH32 with PP013
# B2: ZA3812 ([ZH 27]-ASGS-PP013) (designed binder)
# chain: AEAKYAKEDWDAFWEIIWLPNLTDAQQRAFIYKLEDDPSQSSELLSEAKKLNDSQAPKASGSLAEAKEAANAELDSYGVSDFYKRLIDKAKTVEGVEALKDAILAALP
# How the values were obtained:
# [1] = molecular target: tumor necrosis factor (TNF) (UniProt P01375 77-233); test: SPR (Biacore 2000); ZZA4263 captured on immobilized HSA, analyte injected
# UniProt P01375, sequence (P01375 77-233 limits assumed): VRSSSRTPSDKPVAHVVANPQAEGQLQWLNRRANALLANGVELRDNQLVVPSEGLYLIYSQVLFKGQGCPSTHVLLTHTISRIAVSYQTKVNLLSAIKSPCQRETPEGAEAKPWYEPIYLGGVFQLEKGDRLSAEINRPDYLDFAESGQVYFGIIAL
# Experimental: (§1) HSA (Albucult®, Novozyme) was diluted to 10 μg/ml in acetate, pH 4.0, and immobilized onto a CM5 sensor chip using a Biacore 2000 instrument. Immobilization was performed by amine chemistry, using amine coupling kit, according to the manufacturer's instructions. The first surface of each chip was activated and deactivated for use as a reference cell (blank surface) during analyte injections. HBS-EP was used as running buffer, supplemented with 1.5 mM DTT when analyzing the binding to HMGB1(red). ZZA4263 was injected at a concentration of 100 nM for 4 minutes over the HSA and the reference sensor chip surfaces at a constant flow rate of 30 μl/min. This was followed by 4 minutes' injection of 0, 8.3, 25, 75, 225 and 675 nM of HMGB1(red), HMGB1(disulfide), HMGB2 (Biorbyt, cat. no. orb180287), HMGB3 (Biorbyt, cat. no. orb180288), SP100 (Biorbyt, cat. no. orb169341), TNF (R&D Systems, cat. no. 210-TA), IL-6 (R&D Systems, cat. no. 206-IL) and IL-1β (R&D Systems, cat. no. 201-LB/CF), respectively. The proteins were allowed to dissociate for 20 minutes before the chip surfaces were regenerated by two 10 second pulses using 10 mM HCl. The reference surface and the buffer sample were subtracted from all curves. The buffer sample was subtracted to adjust for the dissociation of ZZA4263 from HSA. All curves were fitted to a kinetic 1:1 Langmuir model in the BIA Evaluation software to estimate the binding properties (kₐ, kd and KD).
# (§2) ZZA4263 was injected and captured on a surface with immobilized HSA followed by concentration series of HMGB1(red), HMGB1(disulfide), HMGB2, HMGB3, SP100, TNF, IL-6 and IL-1β. The highly homologous human proteins HMGB2, HMGB3, SP100 all bind to ZZA4263, although with 17-550 times lower affinity compared to HMGB1(red). No significant binding was detected to any of the other tested proteins involved in the HMGB1 signaling pathway (TNF, IL-6 and IL-1β).
# [2] = molecular target: T1, interleukin-6 (IL-6); test: as above
# Experimental: as §1, §2
# [3] = molecular target: T2, interleukin-1β (IL-1β); test: as above
# Experimental: as §1, §2
# [4] = molecular target: T3, HMGB1(red), fully reduced form of …; test: SPR (Biacore 2000); ZZA4263 captured on immobilized HSA, analyte injected 8.3-675 nM, 1.5 mM DTT; 1:1 Langmuir model
# Experimental: as §1, §2
# [5] = molecular target: T4, HMGB1(disulfide), disulfide linked form …; test: SPR (Biacore 2000); Z-ABD captured on HSA, analyte injected; heterogeneous ligand parallel reactions model, KD1
# Experimental: Biacore kinetic and specificity analysis: Kinetic constants (kₐ and kd) and affinities (KD) for HMGB1(red), HMGB1(disulfide), boxA(disulfide) and GST-boxA(red) were determined for the A-box binding Z-ABD polypeptides ZA3812 (SEQ ID NO:35) and ZA3914 (SEQ ID NO:36) (see Example 2), as well as for the HMGB1(red) interaction with the B-box binding polypeptide ZA3975, using a Biacore 2000 instrument (GE Healthcare).
# The experiment was performed as a capture assay, in which human serum albumin (HSA, Novozymes, cat. no. 230-005) was immobilized on the carboxylated dextran layer of one CM5 chip surface (GE Healthcare, cat. no. BR100012) to immobilization levels of approximately 3000 RU. The immobilization was performed using amine coupling chemistry according to the manufacturer's protocol and using HBS-EP (GE Healthcare, cat. no. BR100188) as running buffer. In a first set of experiments, Z-ABD polypeptides were analyzed under non-reducing conditions. One flow cell surface was activated and deactivated for use as blank during ligand and analyte injections. In the kinetic experiment, HBS-EP was used as running buffer and the flow rate was 30 μl/min. The ligand, i.e. the Z-ABD polypeptide, was diluted in HBS-EP buffer to a concentration of 30 nM and injected during 2 min. […]
Binder,binding result [1],binding result [2],binding result [3],Kd [4] [nM],koff [4] [s⁻¹],kon [4] [M⁻¹ s⁻¹],Kd [5] [nM]
B1,no binding (tested: 675 nM),no binding (tested: 675 nM),no binding (tested: 675 nM),0.12,0.00015,1.3e+06,
B2,,,,,,,110
